Results: PubChem BioAssay (NCATS)
“And” between values parts separate entries of the source, which are not always exact repeats. Identical values can stand only once. Inconclusive results, whose numbers are uncertain, are shown with a selection of clear calls. A potency beside an inconclusive call is a rough fit, not a confirmed value. The source made the active and inactive calls. Unless noted, the call rests on the fitted dose curve; in most records, active means well fitted curve in the direction sought with a large enough effect; inconclusive means small, poorly fitted or top-dose-only effect, or another doubt; inactive means no such curve, though single readings can be large; an effect the other way counts as inactive or inconclusive.

Tests used:
[1] = P-glycoprotein substrates identified in KB-8-5-11 adenocarcinoma cell line, qHTS therapeutic library screen (AID 1346987); further: nearly all actives have a fitted effect of over 65% in size
Outline: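 Human cervical adenocarcinoma KB-8-5-11 cells, selected in colchicine to over-express P-gp and assayed without it, were exposed for 72 h to titrated compounds. An ATP-based luminescent viability signal gave AC50.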

[2] = target: Cytochrome P450 2D6 (Homo sapiens) (UniProt P10635); assay: Cytochrome P450 family 2 subfamily D member 6 (CYP2D6) small molecule antagonists: luciferase biochemical (cell-free) qHTS assay (AID 1645840; active means well fitted curve in the direction sought with a large enough effect in the repeat runs; inconclusive means weak or mixed curves; inactive means no such curve, though single readings can be large; an effect the other way counts as inactive or inconclusive; further: nearly all actives have a fitted effect of over 55% in size; on activity change, negative = inhibition: on the % scale 0 is the no-effect control and ±100 the full control effect)
Chain of UniProt P10635 (P10635 whole entry, looked up): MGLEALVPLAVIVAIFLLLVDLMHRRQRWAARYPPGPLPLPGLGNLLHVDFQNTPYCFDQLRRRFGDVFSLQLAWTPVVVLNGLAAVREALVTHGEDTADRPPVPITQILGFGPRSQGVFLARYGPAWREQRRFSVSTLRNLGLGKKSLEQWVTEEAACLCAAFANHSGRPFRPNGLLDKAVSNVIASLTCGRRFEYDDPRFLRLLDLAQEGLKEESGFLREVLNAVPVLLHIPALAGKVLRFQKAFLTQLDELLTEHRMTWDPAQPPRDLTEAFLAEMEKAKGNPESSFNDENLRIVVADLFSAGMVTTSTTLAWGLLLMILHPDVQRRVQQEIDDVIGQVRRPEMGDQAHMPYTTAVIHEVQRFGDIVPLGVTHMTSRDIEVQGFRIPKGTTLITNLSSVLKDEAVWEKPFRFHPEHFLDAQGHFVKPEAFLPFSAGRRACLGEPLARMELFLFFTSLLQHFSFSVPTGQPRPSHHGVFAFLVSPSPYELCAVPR
Outline: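 P450-Glo CYP2D6 system: proluciferin substrate converted by enzyme to luciferin, read by luminescence proportional to activity. Enzyme-substrate mix with compound 10 min at room temperature, then NADPH regeneration 1 h before detection reagent.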

[3] = Primary qHTS for inhibitors of nuclear receptor binding SET domain protein 2 (NSD2) in an isogenic RCH-ACV NSD2 p.E1099K mutant (9B) (AID 1645876); further: nearly all actives have a fitted effect of over 70% in size
[4] = Primary qHTS for inhibitors of nuclear receptor binding SET domain protein 2 (NSD2) in an RCH-ACV wild type WT cells (2C) (AID 1645877); details: activity change, negative = cell killing: at 44.9 µM (top of the series) unless noted; further: nearly all actives have a fitted effect of over 70% in size
HEK293 = assay: Cytotoxic Profiling of Annotated Libraries Using Quantitative High-Throughput Screening (AID 1296008); details: Five cell lines viability, CellTiter-Glo ATP luminescence, 48-72 h; max response: stronger effect = lower value; further: nearly all actives have a fitted effect of over 60% in size; on max response: on the % scale 0 is the no-effect control and ±100 the full control effect
Outline: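 Cytotoxicity was measured as CellTiter-Glo ATP luminescence, read after 10 min at room temperature. Compound treatment of the cells lasted 48 or 72 hr at 37 degrees Celsius in a qHTS format.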

C33A = assay: Primary qHTS to identify gynecologic anti-cancer compounds using libraries of approved drugs and bioactive compounds (AID 1345084); details: Gynecologic cancer cell panel viability, ATPlite luminescence, 48 h; series mostly up to 57.5 µM; further: nearly all actives have a fitted effect of over 55% in size; on activity change, negative = cytotoxicity: on the % scale 0 is the no-effect control and ±100 the full control effect
Outline: (§1)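 Luminescence from the ATPlite ATP-monitoring reagent indicates viable cell number; lower signal means cytotoxicity. Cells received compound 16 h after seeding and were exposed for 48 h across five concentrations.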

CAOV3 = assay: as above; details: Gynecologic cancer cell panel viability, ATPlite luminescence, 48 h; activity change, negative = cytotoxicity: at 57.5 µM (top of the series)
Outline: as §1

[5] = test system: Zika virus NS2B-NS3 protease (unlinked complex); assay: Primary screen GU Rhodamine qHTS for Zika virus inhibitors: Unlinked NS2B-NS3 protease assay (AID 1347159); further: nearly all actives have a fitted effect of over 60% in size
Outline: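 Unlinked NS2B/NS3, 25 nM; Rhod110 peptide, 1.5 microM; compounds, up to 114 microM. Reaction run 15 min at RT in 10 mM Tris-HCl pH 8.0, 0.01% Tween 20; kinetic fluorescence change fitted with a 4-parameter Hill model.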

OV90 = assay: Primary qHTS to identify gynecologic anti-cancer compounds using libraries of approved drugs and bioactive compounds (AID 1345084); details: Gynecologic cancer cell panel viability, ATPlite luminescence, 48 h; series mostly up to 57.5 µM; further: nearly all actives have a fitted effect of over 55% in size; on activity change, negative = cytotoxicity: on the % scale 0 is the no-effect control and ±100 the full control effect
Outline: as §1

Tov-21-G = assay: as above; details: Gynecologic cancer cell panel viability, ATPlite luminescence, 48 h; activity change, negative = cytotoxicity: at 57.5 µM (top of the series) unless noted
Outline: as §1

PA-1 = assay: as above; details: Gynecologic cancer cell panel viability, ATPlite luminescence, 48 h; series mostly up to 57.5 µM
Outline: as §1

CASKI = assay: as above; details: Gynecologic cancer cell panel viability, ATPlite luminescence, 48 h; series mostly up to 57.5 µM
Outline: as §1

HeLa = assay: as above; details: Gynecologic cancer cell panel viability, ATPlite luminescence, 48 h; activity change, negative = cytotoxicity: at 57.5 µM (top of the series)
Outline: as §1

Hek293T = assay: as above; details: Gynecologic cancer cell panel viability, ATPlite luminescence, 48 h, control line for the selectivity index; activity change, negative = cytotoxicity: at 57.5 µM (top of the series) unless noted
Outline: as §1

SKOV3 = assay: as above; details: Gynecologic cancer cell panel viability, ATPlite luminescence, 48 h; series mostly up to 57.5 µM
Outline: as §1

Tov112D = assay: as above; details: Gynecologic cancer cell panel viability, ATPlite luminescence, 48 h; series mostly up to 57.5 µM
Outline: as §1

[6] = Primary fluorescence-based thiol-reactive (MSTI) qHTS assay for identification of artifact compounds. (AID 1845221);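 further: thiol-reactive compounds lower the probe fluorescence signal; nearly all actives have a fitted effect of over 65% in size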
Outline: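 Compounds were incubated 1 h at room temperature in the dark with the MSTI probe (4 uM) in PBS pH 7.4, 2% DMSO. Signals were normalized between Acetyl-MSTI and MSTI.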

[7] = Primary qHTS for small molecule stabilizers of the endoplasmic reticulum resident proteome: Secreted ER Calcium Modulated Protein (SERCaMP) assay (AID 1508630); details: SH-SY5Y GLuc-SERCaMP (Gaussia luciferase released on ER calcium loss) secretion, thapsigargin, luminescence; activity change, negative = inhibition: at 38.4 µM (top of the series) unless noted
Outline: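 The SH-SY5Y reporter protocol was run at 3 concentrations up to 38.3 uM (primary) or 11 concentrations (follow-up): 16 h compound, 100 nM thapsigargin for 4 h, then extracellular luciferase luminescence.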

[8] = Drug repurposing screens with cells derived from glioblastoma tumor samples (AID 1345199); details: GBM patient neurospheres viability, ATP luminescence, 48 h; Potency: tumour line A unless noted; activity, negative = cell killing: at 46 µM (top of the series), tumour line A unless noted; further: nearly all actives have a fitted effect of over 40% in size
Outline: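 Primary testing used CD133+ neurospheres from four GBM patients, seven concentrations, 48 h exposure and ATP-based viability; confirmation added three slower-growing patient lines.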
Potency means the concentration at half of the fitted maximal effect; tags describe the fitted curve by direction and shape.

CC1=C(C(=O)Nc2cc(Cl)ccc2Cl)C(c2ccco2)C2=C(CCCC2=O)N1 (centres undefined)
inactive: Potency (C33A) | Potency (CAOV3)
inconclusive: Potency [1] 23.1 µM [inhibitor, single point] | Potency [2] 30.1 µM [inhibitor, single point] | Potency [3] 29 µM [inhibitor, single point] | Potency [4] 14.5 µM [inhibitor, partial curve] | Potency (HEK293) 23.1 µM [inhibitor, single point]

C[C@@H]1O[C@@H](O[C@H]2[C@H](O)[C@@H](C(=O)O)O[C@@H](O[C@H]3CC[C@@]4(C)C(CC[C@]5(C)C4CC=C4C6CC(C)(C)CC[C@]6(C(=O)O)CC[C@]45C)C3(C)C)[C@@H]2O[C@@H]2OC[C@@H](O)[C@H](O)[C@H]2O)[C@H](O)[C@H](O)[C@H]1O (some centres undefined)
inactive: outcome [1] inactive [at 9.29 µM] | outcome [3] inactive [at 9.23 µM] | outcome [4] inactive [at 9.23 µM] | max response (HEK293) -0.663% | activity change, negative = cytotoxicity (C33A) 12.7% [at 11.6 µM] | activity change, negative = cytotoxicity (OV90) 2.8% [at 11.6 µM] | activity change, negative = cytotoxicity (Tov-21-G) 13.2% [at 11.6 µM]
active: Potency [5] 8.91 µM

CC(=O)OC1CC(C)C2(CCC3(CC(=O)OC3O)O2)C2(C)CCCC(C)(C)C12 (centres undefined)
inconclusive: Potency [1] 14.2 µM [inhibitor, partial curve, poor fit] | Potency [5] 14.1 µM [inhibitor, full curve] | Potency (HEK293) 14.2 µM [inhibitor, single point]
inactive: Potency (C33A) | Potency (CAOV3) | Potency (PA-1)

C=C(C)C1CC(O)C(C)C12CC(O)C1(C)OC1C2O (centres undefined)
inconclusive: Potency (HEK293) 20.6 µM [inhibitor, single point] | Potency (CAOV3) 7.94 µM [cytotoxic, full curve, poor fit] | Potency (Hek293T) 31.6 µM [cytotoxic, partial curve, poor fit] | Potency (Tov-21-G) 35.5 µM [cytotoxic, single point] | Potency (Tov112D) 35.5 µM [cytotoxic, single point]
active: Potency [4] 3.25 µM | Potency (C33A) 11.2 µM | Potency (CASKI) 12.6 µM | Potency (HeLa) 14.1 µM | Potency (OV90) 7.08 µM | Potency (SKOV3) 7.94 µM

Cc1ccc(S(=O)(=O)NCc2ccc(C(=O)NCCN(Cc3ccccc3)C(C)C)cc2)cc1
inconclusive: Potency [1] 6.51 µM [inhibitor, partial curve] | Potency (HEK293) 29.1 µM [inhibitor, single point] | Potency (C33A) 22.4 µM [cytotoxic, single point] | Potency (OV90) 17.8 µM [cytotoxic, partial curve] | Potency (SKOV3) 25.1 µM [cytotoxic, single point]
inactive: Potency (CASKI)

CN(C)C/C=C/C(=O)Nc1ccc(C(=O)Nc2cccc(Nc3ncc(Cl)c(-c4c[nH]c5ccccc45)n3)c2)cc1
inconclusive: Potency (C33A) 1.58 µM [cytotoxic, partial curve, poor fit] | Potency (CAOV3) 0.708 µM [cytotoxic, full curve, poor fit] | Potency (OV90) 0.891 µM [cytotoxic, full curve] | Potency (SKOV3) 8.91 µM [cytotoxic, partial curve, poor fit] | Potency (Tov-21-G) 2.82 µM [cytotoxic, partial curve, poor fit]
active: Potency [3] 18.3 nM and 52.5 nM | Potency (HEK293) 0.186 µM | Potency (CASKI) 0.794 µM | Potency (Hek293T) 1.26 µM | Potency (PA-1) 0.891 µM | Potency (Tov112D) 0.631 µM
inactive: Potency [2] | Potency [6]

Cc1cc(C)c(S(=O)(=O)n2cc(C)cc2C)c(C)c1
inactive: Potency (C33A) | Potency (HeLa) | Potency (Hek293T)
inconclusive: Potency [3] 29 µM [inhibitor, single point] | Potency [4] 18.3 µM [inhibitor, single point] | Potency [6] 3.77 µM [inhibitor, full curve, poor fit] | Potency (HEK293) 20.6 µM [inhibitor, single point]

NS(=O)(=O)c1cc(-c2nn[nH]n2)c(NCc2cccs2)cc1Cl
inactive: Potency [7] | Potency [2] | Potency [4] | outcome (HEK293) | Potency (C33A) | Potency (Hek293T)
inconclusive: Potency (OV90) 25.1 µM [cytotoxic, single point] | Potency (SKOV3) 3.55 µM [rising, single point] | Potency [8] 0.0891 µM [inhibitor, full curve, poor fit]

CC1(C)CC[C@]2(C(=O)O)CC[C@]3(C)C(=CCC4[C@@]5(C)C[C@@H](O)[C@H](O)C(C)(C)C5CC[C@]43C)[C@@H]2[C@@H]1O (some centres undefined)
inactive: Potency [5] | Potency [3] | outcome (HEK293) | Potency (C33A) | Potency (CAOV3) | Potency (SKOV3)

COC(=O)c1ccc2c(c1)[nH]c1ncnc(NCCCN3CCCCC3)c12
active: Potency [3] 16.3 µM
inconclusive: Potency (HEK293) 18.4 µM [inhibitor, single point] | Potency (PA-1) 28.2 µM [cytotoxic, single point]
inactive: Potency (C33A) | Potency (CASKI)

Cc1ccc(-n2nc(C(C)(C)C)cc2NC(=O)Nc2cc(COc3cccnc3)[nH]n2)cc1
inconclusive: Potency (C33A) 7.94 µM [rising, partial curve] | Potency (PA-1) 6.31 µM [cytotoxic, partial curve, poor fit]
inactive: Potency [6] | max response (HEK293) -3.79% | Potency (CASKI) | Potency (SKOV3)

C=CC(C)(O)CC/C=C(/C)COC(=O)C(C)C1CCC(C)(C=C)O1 (centres undefined)
inconclusive: Potency [4] 17.9 µM [inhibitor, partial curve, poor fit] | Potency (HEK293) 20.2 µM [inhibitor, single point] | Potency (C33A) 14.1 µM [cytotoxic, single point] | Potency (CAOV3) 28.2 µM [rising, single point] | Potency (Tov112D) 31.6 µM [cytotoxic, single point]

COC(=O)c1cc(Cl)ccc1NS(=O)(=O)C(F)(F)F
active: Potency (CAOV3) 25.1 µM
inactive: Potency [2]
inconclusive: Potency [7] 31.6 µM [inhibitor, partial curve, poor fit] | Potency (HEK293) 33.5 µM [inhibitor, single point] | Potency (C33A) 39.8 µM [cytotoxic, single point] | Potency (HeLa) 39.8 µM [cytotoxic, single point] | Potency (Tov-21-G) 39.8 µM [cytotoxic, single point] | Potency (Tov112D) 39.8 µM [cytotoxic, single point]

COc1cc(CCO)ccc1O[C@@H]1O[C@H](CO)[C@@H](O)[C@H](O)[C@H]1O
inconclusive: Potency (HEK293) 20.2 µM [inhibitor, single point] | Potency (C33A) 28.2 µM [cytotoxic, single point] | Potency (CASKI) 28.2 µM [cytotoxic, single point] | Potency (Hek293T) 20 µM [cytotoxic, single point] | Potency (PA-1) 2.24 µM [cytotoxic, partial curve, poor fit] | Potency (SKOV3) 12.6 µM [cytotoxic, single point] | Potency (Tov-21-G) 28.2 µM [cytotoxic, single point] | Potency (Tov112D) 28.2 µM [cytotoxic, single point]

CC(C)(C)Sc1c(CC(C)(C)C(=O)O)n(Cc2ccc(Cl)cc2)c2ccc(OCc3ccc4ccccc4n3)cc12
inconclusive: Potency [1] 29.1 µM [inhibitor, single point] | Potency (HEK293) 23.1 µM [inhibitor, single point] | Potency (CAOV3) 2 µM [cytotoxic, single point] | Potency (CASKI) 35.5 µM [rising, partial curve, poor fit] | Potency (SKOV3) 1.12 µM [cytotoxic, single point]
inactive: Potency [4] | Potency (C33A) | Potency (OV90)

Cn1cc(-c2cnn3c(N)c(Br)c(C4CCCNC4)nc23)cn1 (centres undefined)
active: Potency [4] 1.05 µM | Potency (HEK293) 1.03 µM | Potency (PA-1) 14.1 µM
inconclusive: Potency [1] 18.4 µM [inhibitor, single point] | Potency [6] 11.9 µM [inhibitor, partial curve, poor fit] | Potency (C33A) 28.2 µM [cytotoxic, partial curve, poor fit] | Potency (HeLa) 25.1 µM [cytotoxic, partial curve, poor fit] | Potency (Hek293T) 3.55 µM [cytotoxic, single point] | Potency (SKOV3) 20 µM [cytotoxic, single point] | Potency (Tov-21-G) 1.26 µM [cytotoxic, full curve]
inactive: Potency (OV90)
